# Assay results: the supplement of paper PMC8728848
# The other results are listed elsewhere or left out.
# B1: UDA (Urtica dioica), P11218 (protein)
# chain: MMMRFLSAVVIMSSAMAVGLVSAQRCGSQGGGGTCPALWCCSIWGWCGDSEPYCGRTCENKCWSGERSDHRCGAAVGNPPCGQDRCCSVHGWCGGGNDYCSGSKCQYRCSSSVRGPRVALSGNSTANSIGNVVVTEPLFDQMFSHRKDCPSQGFYSYHSFLVAAESFPAFGTIGDVATRKREVAAFLAHISQATSGERSDVENPHAWGLCHINTTTVTENDFCTSSDWPCAAGKKYSPRGPIQLTHNFNYGLAGQAIGEDLIQNPDLVEKDPIISFKTALWFWMSQHDNKPSCHDIVLNANSAANRIPNKGVIGNIISRAFGHDDFAVRSSSIGFYKRYCDMLGVSYGHDLKYWFDNTPSSEFQRIQMRVAA
# Legend:
# Assay in all cases: glycan array binding signal (z-score within array); higher = stronger binding
# Conditions in all cases: glycan notation: IUPAC condensed, linker removed
# [1] = molecular target: Neu5Gc(a2-3)Gal(b1-4)GlcNAc(b1-3)Gal(b1-4)GlcNAc(b1-2)Man(a1-3)[Neu5Gc(a2-3)Gal(b1-4)GlcNAc(b1-3)Gal(b1-4)GlcNAc(b1-2)Man(a1-6)]Man(b1-4)GlcNAc(b1-4)GlcNAc
# Method in brief: (§1)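 Glycan array binding is given as a within-array Z-score, which can be read as non-binding when negative. The arrays, 3228 of them, came from the Consortium for Functional Glycomics database and were retained only where the protein sequence was available. Z-scores were averaged across arrays of the same protein sequence at different concentrations or buffers and across linkers.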
# [2] = molecular target: Neu5Gc(a2-3)Gal(b1-4)[Fuc(a1-3)]GlcNAc
# Method in brief: as §1
# [3] = molecular target: Neu5Gc(a2-6)Gal(b1-4)GlcNAc
# Method in brief: as §1
# Neu5Gc(a2-6)GalNAc = molecular target: Neu5Gc(a2-6)GalNAc
# Method in brief: as §1
# [4] = molecular target: Neu5Gc(a2-8)Neu5Ac(a2-3)Gal(b1-4)GlcNAc
# Method in brief: as §1
# [5] = molecular target: Neu5Gc(a2-8)Neu5Gc(a2-3)Gal(b1-4)GlcNAc
# Method in brief: as §1
# [6] = molecular target: Neu5Gc(a2-8)Neu5Gc(a2-3)Gal(b1-4)GlcNAc(b1-3)Gal(b1-4)GlcNAc
# Method in brief: as §1
# [7] = molecular target: Neu5Gc(a2-8)Neu5Gc(a2-6)Gal(b1-4)GlcNAc
# Method in brief: as §1
# [8] = molecular target: Neu5Gc(b2-6)Gal(b1-4)GlcNAc
# Method in brief: as §1
binder,measurement,setting,value
B1,glycan array binding signal (z-score),[1],0.015
same,glycan array binding signal (z-score),[2],-0.191
same,glycan array binding signal (z-score),[3],-0.186
same,glycan array binding signal (z-score),Neu5Gc(a2-6)GalNAc,-0.191
same,glycan array binding signal (z-score),[4],-0.091
same,glycan array binding signal (z-score),[5],-0.107
same,glycan array binding signal (z-score),[6],-0.099
same,glycan array binding signal (z-score),[7],-0.175
same,glycan array binding signal (z-score),[8],-0.167
